# Measurements: PubChem BioAssay (NCI)
#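 Briefly, cells in 96-well plates were exposed to five compound concentrations for 48 h, and endpoints were estimated by linear interpolation. GI50 is the concentration that inhibits growth by half. TGI is the concentration that stops growth completely.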
# System: NCI-H322M lung
# Experiment: NCI anticancer screen, dose series, 48 h
SMILES,TGI [µM],GI50 [µM]
CC(=O)Nc1ccc2c(C)c3c(nc2n1)[nH]c1ccccc13,> 100,–
CC(CO)Nc1cc(-c2[nH]c3cccnc3c2-c2ccc(F)cc2)ccn1 (configuration not stated),> 25,14.8
O=C1[C@H](O)[C@@H]2C(O)O[C@H]3[C@@H]2N1C[C@H]3[Si](c1ccccc1)(c1ccccc1)c1ccccc1 (some centres not stated),> 100,–
N#CCCN(CCC#N)c1ccc(/C=C2\N=C(c3ccccc3)N(c3ccc(F)cc3)C2=O)cc1,> 100,–
COc1cc(Cl)cc(=O)c(O)c1OC,> 100,–
CCOC(=O)C(C#N)(Cc1c[nH]c2ccccc12)NC(C)=O (configuration not stated),> 100,–
COC(=O)/C(=N\NC(C)(C)C)C(C(=O)OC)C(=O)C(=O)Nc1cc(Cl)ccc1Cl (configuration not stated),> 100,–
c1ncn(C23C4C5C6C4C2C6C53)n1 (configuration not stated),> 100,–
COc1cc(C2c3c(ccc4ccccc34)C(=O)C3CCC(=O)N32)cc(OC)c1OC (configuration not stated),> 50,–
O=C(/C=C/c1ccccc1)Oc1cccc2cccnc12,> 91.2,–
CCSCCCSCCSCC,> 100,–
Nc1n(CC(=O)c2ccccc2)nc2sc(-c3ccccc3)n[n+]12,31.6,–
c1ccc(-c2csc3c4ccccc4c4ccccc4[n+]23)cc1,35.8,–
COc1cccc(N2C(=O)CSC2c2cccc(Oc3ccccc3)c2)c1 (configuration not stated),> 100,–
N#Cc1c(-c2ccc(Cl)cc2)c2c(nn3c4ccc5ccccc5c4nnc23)[nH]c1=O,37.4,–
CCCN1C(=O)NC(=O)C(CC)(N2C(=O)c3c(F)c(F)c(F)c(F)c3C2=O)C1=O (configuration not stated),13.9,3.67
c1ccc(-c2nc(-c3ccccn3)nc(-c3ccccn3)n2)nc1,> 100,27
CC(=O)c1c(-c2cccc3ccccc23)c(C#N)c(=S)n(C2OC(CO)C(O)C(O)C2O)c1C (configuration not stated),> 100,–
O=C(c1ccc2ccccc2c1)c1c(C(F)(F)F)n([O-])c2ccc(C(F)(F)F)cc2[n+]1=O,3.23,1.79
CCCCCOc1ccc(C=Nc2ccc(CCc3ccc(N=Cc4ccc(OCCCCC)cc4)cc3)cc2)cc1,> 100,–
c1ccc(NN(Cc2cnccn2)c2ccccc2)cc1,> 100,–

SMILES,TGI [µM],GI50 [µM]
COC1=NCc2ccccc2-c2ccccc21,> 100,–
C=CCc1c(Cl)nc(Cl)nc1Cl,1.42,–
N#C[Se]Cc1cc(-c2ccccc2)n(-c2ccc(S(N)(=O)=O)cc2)n1,6.63,1.76
C[C@H](c1ccccc1)N1C(=O)[C@@H](O)[C@H]1[C@H](CO)OCc1ccccc1,> 100,–
COc1ccc(C2=Nn3c(nnc3-c3cc(Cl)cc(Cl)c3Cl)SC2)cc1,> 100,4.53
CC(C)=CCN1c2ccccc2NC(=O)CC1C (configuration not stated),> 100,–
CCOC(=O)c1c(C)n(Cc2ccc(Cl)cc2Cl)c2c1cc(O)c1[nH]c3c(c12)CCCC3,37.7,–
Cc1cc([NH-])c([NH-])cc1C.[Cl][Pt+2][Cl],44.3,18.3
Cc1c(OC(C)C(=O)O)ccc2c(-c3ccccc3)cc(=O)oc12 (configuration not stated),> 100,–
CN1N=CSC12C(=O)N(c1ccccc1)C(=O)N2c1ccccc1 (configuration not stated),> 100,–
Cc1c(/C=N/NC(=O)c2ccccc2O)c(=O)n(-c2ccccc2)n1C,> 100,–
COc1cc(/C=C/C(=O)/C=C/c2cc(OC)c3c(c2)OCO3)cc2c1OCO2,> 100,> 100
CN(C)c1cc2ccccc2oc1=O,> 100,–
Cn1nc2ccc([N+](=O)[O-])c(Cn3nnc4ccccc43)c2n1,> 100,–
COC(=O)[C@H]1C=NN[C@@H]1C(=O)N1[C@H]2CC3CC[C@@]2(CS1(=O)=O)C3(C)C,> 100,–
O=c1oc2ccccc2c2c1Sc1ccccc1N2,> 100,–
N#CC(C#N)=C/C=C(\Cl)c1ccc(Cl)cc1,42.1,20.3
C[C@@H](NC(C#N)c1ccco1)c1ccccc1 (some centres not stated),> 100,–
COc1ccc(N2CC(=O)N(C(=O)COc3ccc(OCC(=O)N4C(=O)CN(c5ccc(OC)cc5)C4=S)cc3)C2=S)cc1,78.4,–
CCOC(=O)c1ccc(-n2[nH]nc(C(N)=O)c2=O)cc1,> 100,–
COc1ccc(-c2noc(C(=O)O)c2-c2cc(OC)c(OC)c(OC)c2)cc1,> 100,5.36
